Where “and” joins values, the source holds several entries; their conditions need not be identical. Identical values can stand only once. Part of at least one peptide drawing is inferred or uncertain, most often the ends. Where no end group is shown, it is not given here.
Legend:
[1] = target: T1, GPIb (Homo sapiens, UniProt P07359); assay: Inhibition of the interaction of vWF with GPIb (summary statement); format: binding
[2] = target: T1, GPIb; assay: Inhibition of 125I-asialo-vWF binding to fresh platelets by peptides; parameters: endogenous in cells; host or cells: fresh or formalin-fixed platelets; details: for IC50: fresh platelets 1 x 10¹¹/liter, 125I-asialo-vWF 5 micrograms/ml, 30 minutes room temperature, read-out: IC₅₀ (concentration of peptide which inhibited binding by 50%); for concentration at which complete inhibition was seen: 125I-asialo-vWF binding to fresh platelets
Procedure: To test the inhibitions of asialo-vWF binding to platelets, fresh platelets were used. These were prepared by drawing blood into 11 millimolar trisodium citrate and 2 millimolar EDTA. Platelet-rich plasma was then prepared by differential centrifugation. The platelet count was then adjusted to 1 x 10¹¹/liter. Peptides were then added to various concentrations and ¹²⁵I-asialo-vWF was then added at a final concentration of 5 micrograms/ml. After incubation for 30 minutes at room temperature bound and free ligand were separated by centrifuging 50 microliters of the mixture through 300 microliters of 20% sucrose at 12,000 x g for 4 minutes. The platelet pellet was then separated from the rest of the mixture to determine platelet-bound radioactivity. Non-specific binding was defined as the residual binding of ¹²⁵I-asialo-vWF in the presence of a 50-fold excess of unlabeled vWF but in the absence of any peptides.
Percent inhibition with a given peptide was calculated by dividing the specific cpm obtained when various concentrations of peptide were added by the specific cpm in the absence of peptide. The IC₅₀'s (concentration of peptide which inhibited binding by 50%) for the peptides tested were as follows: […]

[3] = test system: GPIb; assay: Inhibition of ristocetin-induced binding of 125I-labeled vWF to fresh or formalin-fixed platelets (glycocalicin, its fragments, glycocalicin-derived peptides); details: synthetic peptides of the 45 kDa fragment sequence, tested individually, read-out: IC₅₀
[4] = test system: platelets; assay: Inhibition of asialo-vWF-induced aggregation (platelet-rich plasma, aggregometer); format: cell-based; details: peptide at a concentration of 55 micromolar, asialo-vWF 15 micrograms/ml
[5] = test system: platelets; assay: Inhibition of ristocetin-induced platelet aggregation (washed platelets, aggregometer); format: cell-based; details: peptide at a concentration of 100 micromolar
[6] = target: T1, GPIb; assay: Inhibition of ristocetin-induced binding of 125I-vWF to formalin-fixed platelets by peptides; parameters: endogenous in cells; host or cells: fresh or formalin-fixed platelets; details: formalin-fixed platelets 1 x 10¹¹/liter, 125I-vWF 5 micrograms/ml, ristocetin 1.0 mg/ml, 30 minutes room temperature; read-out: IC₅₀ (concentration of peptide which inhibited binding by 50%)
Procedure: To test the inhibition of ristocetin-induced binding of vWF to platelets by peptides, formalin-fixed platelets were used at a final concentration of 1 x 10¹¹/liter. Peptides to be tested were then added at various concentrations. One third final volume of vWF deficient plasma was then added followed by ¹²⁵I-vWF a final concentration of 5 micrograms/ml. Ristocetin was then added at a concentration of 1.0 mg/ml. After incubation for 30 minutes at room temperature bound and free ligand were separated by centrifuging 50 microliters of the mixture through 300 microliters of 20% sucrose at 12,000 x g for 4 minutes. The platelet pellet was then separated from the rest of the mixture to determine platelet-bound radioactivity. Nonspecific binding was defined as the residual binding of ¹²⁵I-vWF in the presence of a 50-fold excess of unlabeled vWF but in the absence of any peptides.
Percent inhibition with a given peptide was calculated by […]. The IC₅₀'s (concentration of peptide which inhibited binding by 50%) for the peptides tested were as follows: […]

Compound | IC50 [3] | concentration at which complete inhibition was seen [2] | further results
N=C(N)NCCC[C@H](NC(=O)[C@H](CCCNC(=N)N)NC(=O)[C@H](CCCNC(=N)N)NC(=O)[C@H](CCCNC(=N)N)NC(=O)[C@H](CCCNC(=N)N)NC(=O)[C@H](CCCNC(=N)N)NC(=O)[C@H](CCCNC(=N)N)NC(=O)[C@H](CCCNC(=N)N)NC(=O)[C@H](CCCNC(=N)N)NC(=O)[C@H](CCCNC(=N)N)NC(=O)[C@@H](N)CCCNC(=N)N)C(=O)O [(R)₁₁] |  |  | inhibition of the interaction of vWF with GPIb (in words) [1]: inhibited; IC50 [2]: 7 µM
DKRNLTALPPDLPKDTT | ≤ 500 µM |  | 
EEDTE [EEDTE] | > 500 µM |  | 
EEDTEGDKVRATRTV | ≤ 500 µM |  | 
KQGVDVKAMTSNVAS | ≤ 500 µM |  | 
KRKRKR [(KR)₃] |  | 60 µM and 120 µM | Inhibition of aggregation [4]: no significant inhibition
KRKRKRKRGDV [(KR)₄GDV] |  | 44 µM | 
KRKRKRKRKR [(KR)₅] |  | 6 µM and 7 µM | Inhibition of aggregation [5]: 50% inhibition; Inhibition of aggregation [4]: 88% inhibition
KRKRKRKRKRKRKR [(KR)₇] |  | 12 µM and 15 µM | Inhibition of aggregation [5]: 82% inhibition; Inhibition of aggregation [4]: 100% inhibition; IC50 [6]: 15 µM; IC50 [2]: 1.5 µM
NLTALPPDLPKDTTI | ≤ 500 µM |  | 
PGLLTPTPKLEKLSL | ≤ 500 µM |  | 
PPDLPKDTT | > 500 µM |  | 
PPDLPKDTTILHLSE | ≤ 500 µM |  | 

Source: EP0317278A2, “Proteolytic fragments and synthetic peptides that block the binding of von Willebrand factor to the platelet membrane glycoprotein Ib” (SCRIPPS CLINIC AND RESEARCH FOUNDATION, priority 1987, dated 1989)
